In PMC4336329 (PLoS ONE, 2015):
About 2,200 (0.71%) of roughly 310,000 compounds showed an effect of 50% or more. Effects have a minus sign here. The list shows a part of the results.

Molecular target: human ether-à-go-go-related gene (hERG) potassium channel (human, UniProt Q12809)
Assay: primary screen, population patch clamp on CHO cells stably expressing hERG

human ether-à-go-go-related gene (hERG) potassium channel, sequence (Q12809 whole entry, looked up): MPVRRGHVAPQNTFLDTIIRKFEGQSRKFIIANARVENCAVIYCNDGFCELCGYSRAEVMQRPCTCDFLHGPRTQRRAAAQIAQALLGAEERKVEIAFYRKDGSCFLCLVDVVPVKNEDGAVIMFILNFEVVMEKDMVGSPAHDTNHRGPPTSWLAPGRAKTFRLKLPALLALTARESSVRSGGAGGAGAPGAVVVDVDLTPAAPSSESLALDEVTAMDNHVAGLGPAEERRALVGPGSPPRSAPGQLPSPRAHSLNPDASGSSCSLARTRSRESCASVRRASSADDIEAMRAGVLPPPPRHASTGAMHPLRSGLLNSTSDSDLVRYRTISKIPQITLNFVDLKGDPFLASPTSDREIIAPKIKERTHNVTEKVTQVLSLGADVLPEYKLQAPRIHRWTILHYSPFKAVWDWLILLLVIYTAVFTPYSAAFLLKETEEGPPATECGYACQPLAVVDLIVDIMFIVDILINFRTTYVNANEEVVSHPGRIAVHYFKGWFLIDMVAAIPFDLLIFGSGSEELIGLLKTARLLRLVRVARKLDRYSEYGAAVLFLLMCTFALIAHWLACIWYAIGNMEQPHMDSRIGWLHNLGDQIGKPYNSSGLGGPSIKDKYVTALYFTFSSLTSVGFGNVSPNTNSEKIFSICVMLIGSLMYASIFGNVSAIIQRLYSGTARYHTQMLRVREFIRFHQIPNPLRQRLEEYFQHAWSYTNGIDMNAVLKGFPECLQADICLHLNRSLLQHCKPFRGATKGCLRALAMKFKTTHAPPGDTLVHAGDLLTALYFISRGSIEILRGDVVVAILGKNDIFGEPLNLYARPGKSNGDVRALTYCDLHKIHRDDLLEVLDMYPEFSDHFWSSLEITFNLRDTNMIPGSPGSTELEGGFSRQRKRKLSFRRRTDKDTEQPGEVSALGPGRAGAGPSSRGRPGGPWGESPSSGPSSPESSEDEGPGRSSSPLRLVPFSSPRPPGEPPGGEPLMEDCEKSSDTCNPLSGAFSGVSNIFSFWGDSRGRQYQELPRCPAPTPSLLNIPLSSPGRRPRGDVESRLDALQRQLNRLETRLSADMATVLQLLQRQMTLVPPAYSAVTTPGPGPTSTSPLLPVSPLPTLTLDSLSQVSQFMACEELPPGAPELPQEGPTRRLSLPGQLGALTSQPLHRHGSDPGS

Row | Compound | hERG current change (%, negative = inhibition) at 1uM [%]
1 | CC(=O)c1ccc(O)c(CSC2=NCCS2)c1 | 5.49
2 | O=C(CSc1ncn[nH]1)N1N=C2/C(=C/c3ccccc3)CCCC2C1c1ccccc1 (centres unmarked) | 10.1
3 | Cc1cccc(N2CCN(C(=O)c3cc4ccccc4oc3=O)CC2)c1C | -2.32
4 | Cc1ccc(-c2cc(C)nc3ncnn23)cc1 | 7.99
5 | C#CCOCCOCCOCCNc1nc(N2CCN(C(=O)[C@H](CCC(=O)O)n3cc(C(N)[C@H](C)CC)nn3)CC2)nc(N2CCN(C(=O)[C@H](Cc3cc4ccccc4[nH]3)n3cc(C(N)[C@H](C)CC)nn3)CC2)n1.Cl (some centres unmarked) | 9.3
6 | Cn1cccc1C(=O)NC(=O)COC(=O)CNC(=O)c1ccc(Cl)cc1Cl | 13.9
7 | Cc1cc(=O)n(CC=C(Cl)Cl)c2ccccc12 | 7.7
8 | Cc1c(C(=O)Oc2ccc(F)cc2)sc2ncn(Cc3cccc(F)c3)c(=O)c12 | -0.534
9 | O=C(CN1CCOCC1)N/N=C/c1ccco1 | 15.7
10 | CC(=O)Nc1cc(-c2nn(C)c(=O)c3ccccc23)ccc1N1CCCCC1 | 21.7
11 | COc1cc(N=Nc2c(O)c3ccccc3[nH]c2=O)c(OC)cc1N=Nc1ccccc1 | 14.8
12 | Cc1ccc(CN2CCc3c(OCC(=O)Nc4cccc(C)c4C)cccc3C2=O)cc1 | 8.32
13 | COc1ccc(CCNC(=O)CS(=O)(=O)Cc2nc(-c3ccccc3Cl)oc2C)cc1OC | 8.61
14 | O=C(Nc1c2c(nn1-c1ccc([N+](=O)[O-])cc1)CS(=O)(=O)C2)c1ccccc1F | 4.47
15 | Cc1cc(=O)n(C)c(=O)n1CCCCCOc1cccc([N+](=O)[O-])c1 | -12.4
16 | CCN1C(=S)SC(=O)C1=C1C=C(C)N(Cc2ccco2)C(C)=C1 | 1.56
17 | CC(Oc1cccc(Cl)c1)C(=O)Nc1nc(-c2ccccn2)cs1 (centres unmarked) | 9.93
18 | CC1(C)CC2CC(C)(CN2CC(O)COc2ccccc2)C1.O=C(O)C(=O)O (centres unmarked) | -0.829
19 | O=C(NNC(=O)c1cc(Cl)ccc1O)c1cccc(S(=O)(=O)N2CCOCC2)c1 | 14.2
20 | C=CCNc1ccc(N2C(=O)CCCC2=O)cc1[N+](=O)[O-] | 19.6
21 | COc1ccc(OC)c(CC(=O)Nc2cc(S(=O)(=O)N3CCCCC3)ccc2C)c1 | 2.36
22 | CCCCOc1ccc(/C=C/C(=O)OCC(=O)N2CC(=O)Nc3ccccc32)cc1OCC | 15.7

Row | Compound | hERG current change (%, negative = inhibition) at 1uM [%]
23 | CCc1nn(CC(=O)NCCCN2CCCC2=O)c(=O)c2cc3sccc3n12 | 3.94
24 | Nc1nccc(/C=C/c2c(F)cccc2Cl)n1 | 5.43
25 | C/C(=N\Nc1ccc(Cl)cc1)c1c(O)cc(C)oc1=O | 8.19
26 | Cc1nn(Cc2ccc(Cl)cc2)c(C)c1NC(=O)C(c1ccccc1)c1ccccc1 | -12.3
27 | O=[N+]([O-])c1ccccc1OCCOCCOc1cccc2cccnc12 | -0.887
28 | CC(C)(C)NC(=O)COC(=O)c1cc(S(=O)(=O)N2CCCCC2)ccc1N1CCOCC1 | 4.54
29 | Cc1oc2ccc(OCc3ccccc3Cl)cc2c1C(=O)O | 0.264
30 | CCCCC(CC)CNC(=O)C1C2C=CC(C2)C1C(=O)O (centres unmarked) | 7.2
31 | C/C(=N\NC(=O)c1cccs1)c1ccc2ccccc2c1 | 15.5
32 | CCn1c(O)c(/C=C2\C=Nc3ccccc32)sc1=Nc1ccccc1 | 14.1
33 | O=C(Nc1ccccc1)c1ccc(S(=O)(=O)N2CCCCC2)cc1 | -23.1
34 | Cc1ccc(-n2c(N)c(C(=O)N3CCOCC3)sc2=S)cc1 | -19.4
35 | O=[N+]([O-])c1cc(-n2cccc2)ccc1N1CCOCC1 | -3.61
36 | CC(C(=O)NC1C(=O)N2C(C(=O)O)=C(CSc3nnnn3C)CSC12)n1cc(Br)cn1 (centres unmarked) | 15.1
37 | Cc1c(/C=N/n2cnnc2)c2ccccc2n1C | 8.91
38 | Cc1cc(C)c2cc(CN(CC3CCCO3)C(=S)NCc3ccco3)c(=O)[nH]c2c1 (centres unmarked) | 4.08
39 | CN(C(=O)CSc1nc(N)c2c3c(sc2n1)CSC(C)(C)C3)c1ccccc1 | -0.518
40 | COc1ccc(-n2c3c(cc(C(=O)NNc4ccccc4)c2=O)C(=O)CC(C)(C)C3)cc1 | 9.11
41 | COCCCNC(=O)Cn1nnc(-c2ccc(NC(=O)c3cccnc3)cc2)n1 | 1.04
42 | COc1ccc(Oc2coc3cc(OC(=O)c4cccs4)ccc3c2=O)cc1 | 11.5
43 | C=C(C)CN1C(=O)C(=O)N(CC(=C)C)C1=O | 15.1
44 | O=C(Nc1ccccc1C(=O)NCc1ccco1)NC1CCCCC1 | 0.709
